Laboratory results: PubChem BioAssay AID2101 (National Center for Advancing Translational Sciences (NCATS), 2009)
Among all 330,000 compounds or so, about 300 (0.091%) were called active. The inconclusive results got no clear call from the source; some entries with a clear call stand among them for comparison. The call rests on the fitted dose curve; in most records, active means well fitted inhibition curve with a large enough effect; inconclusive means small, poorly fitted or top-dose-only effect, or effect the other way, or another doubt; inactive means no such curve, though single readings can be large or run the other way. No potency is given beside an inconclusive call; the fits are too rough.

target: Lysosomal acid glucosylceramidase (Homo sapiens) (UniProt P04062); assay: qHTS Assay for Inhibitors and Activators of N370S glucocerebrosidase as a Potential Chaperone Treatment of Gaucher Disease; settings: N370S GC spleen homogenate, 4MU-glucoside fluorescence; activity change, negative = inhibition: at 59.4 µM (top of the series) unless noted;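 on activity change, negative = inhibition: 0% = full enzyme activity and -100% = no enzyme basal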
Potency means the concentration at half of the fitted maximal effect.

Compound | Potency | activity change, negative = inhibition
COc1ccc(C2C(C(=O)c3cccs3)=C(O)C(=O)N2c2nncs2)cc1 (centres undefined) | inconclusive [inhibitor, partial curve, poor fit] | 
COc1ccccc1OCC(=O)Nc1cc(Cl)ccc1Oc1ccccc1 | inconclusive [activator, partial curve] | 
CC(=O)c1ccc(-c2ccc(C(=O)NCC3CCCO3)o2)cc1 (centres undefined) | inconclusive [activator, single point] | 
CCCCCCC(C)OC(=O)Nc1cccc2ccccc12 (centres undefined) | inconclusive [activator, single point] | 
Cc1ccc2c(c1)C1C=CCC1C(C(=O)O)N2 (centres undefined) | inactive | 
CC(C)c1ccc(/C=C/C(=O)NCc2ccc(S(N)(=O)=O)cc2)cc1 | inconclusive [activator, single point] | 
CCCCC1(C)OC(=O)C(=Cc2c[nH]c3ccccc23)C(=O)O1 (centres undefined) | inconclusive [activator, single point] | 
Cc1cc(=O)oc2cc(O)ccc12 | inconclusive [activator, partial curve] | 
CCOC(=O)c1c(-c2ccccc2)oc2ccc(OCC(O)CNCCN(C)C)cc12 (centres undefined) | inconclusive [inhibitor, full curve] | 
CCc1ccc(O)c(N=Cc2ccccc2O)c1 | inactive | 
O=C(NNc1c2ccccc2nc2ccccc12)C12CC3CC(CC(C3)C1)C2 | inconclusive [activator, partial curve] | 
O=S(=O)(c1ccc(NC(=S)Nc2ccc(OC(F)F)cc2)cc1)N1CCOCC1 | inconclusive [inhibitor, full curve, poor fit] | 
Cc1ccc(NC(=O)c2cc3c(s2)CCCC3)cc1S(=O)(=O)Nc1ccccc1Cl | inactive | 
C/C(=N\NC(=O)c1cc(-c2ccc(Cl)s2)[nH]n1)c1ccncc1 | inconclusive [inhibitor, single point] | 
Cc1cccc(NC(=S)NC(=O)/C=C/c2ccco2)n1 | inactive | 
O=C(c1ccco1)N1CCN(c2nc3ccccc3c(=O)n2-c2ccccc2)CC1 | inconclusive [activator, single point] | 
CCCCc1nc2c(c3c1C[C@H](C)OC3)CN(C(=O)N[C@H](C(=O)OC)C(C)C)CC2 |  | inactive: -5.2% [at 12.8 µM]
Cc1cc(N2C3CCC2CC(O)(c2ccc(F)cc2)C3)nc(-c2ccccc2)n1 (centres undefined) | inconclusive [inhibitor, single point] | 
Cc1cc(C)c2c3c(sc2n1)C1(CCSCC1)C(C#N)=C(N)O3 | inconclusive [activator, full curve, poor fit] | 
